# Values joined by “and” are separate entries in the source; they are usually repeats but may differ in a detail not shown here. Identical values can stand only once. In all, about 340,000 compounds went through this assay and about 12,000 (3.5%) were called active. Inconclusive results, whose numbers are uncertain, are shown with a selection of clear calls. Calls follow the shape of the dose curve; as a rule, active = well fitted inhibition curve with a large enough effect; inconclusive = small, poorly fitted or top-dose-only effect, or another doubt; inactive = no such curve, though single readings can be large or run the other way. Potencies beside an inconclusive call are fits to weak or partial responses and may not hold up.
# Assay: qHTS Assay for Inhibitors of Hepatitis C Virus (HCV)
# Details: Huh7.5.1 HCVcc-Cre (HCVcc is cell-culture hepatitis C virus) infection, luciferase reporter, 44 h; activity change, negative = inhibition: at 41.8 µM (top of the series) unless noted
# How it was run: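 Reporter virus HCVcc-Cre (~0.5 moi) infects cells exposed to compound; seeding density 1,000 cells/well with 4 h settling beforehand. Luminescence, 15 sec read, taken 44 h post-infection following a 15 min RT substrate incubation.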
# % is scaled to controls: 0 for no effect and ±100 for the full control effect; potency is read from the fitted curve at half-maximal effect; tags tell the direction and shape of the fitted curve.
SMILES,"activity change, negative = inhibition",Potency
NC(=O)C1(Nc2ccc(-c3ccc(Br)cc3)cc2)CCCC1,inactive: -6.83%,–
Cc1[nH]c2ccccc2c1/C=N/Nc1nc(Nc2ccccc2)nc(N2CCOCC2)n1,–,"inconclusive: 11.2 µM [inhibitor, partial curve]"
CCOC(=O)N1CCN(C(=O)CSCC(=O)Nc2nc(-c3ccc(OC)cc3)cs2)CC1,–,"inconclusive: 891 nM [inhibitor, full curve] and inconclusive: 2 µM [inhibitor, full curve, poor fit]"
CN1CCC(Oc2ccccc2Sc2ccc(C(F)(F)F)cc2)CC1,–,active: 11.2 µM
N#C/C(=C\c1cccs1)c1nc2ccccc2[nH]1,inactive: -0.713%,–
CCCn1c(=O)c(C(=O)NCCCc2ccccc2)c(O)c2ccccc21,–,"inconclusive: 15.8 µM [inhibitor, single point]"
CCCOc1ccc(-c2nnn(CC(=O)N3CCCC(C)C3)n2)cc1 (stereo not given),–,"inconclusive: 22.4 µM [inhibitor, single point]"
CN(CC(=O)Nc1cccc(F)c1)C(=O)c1ccc2c(c1)S(=O)(=O)N=C1CCCCCN12,–,"inconclusive: 31.6 µM [inhibitor, single point]"
COc1ccc(NC2=CC(c3ccccc3)N(c3ccc(OC)cc3)C2=O)cc1 (stereo not given),–,"inconclusive: 31.6 µM [inhibitor, single point]"
CC(C)(C)n1c(O)c2ccc(C(=O)N=NC(=O)c3ccccc3)cc2c1O,inactive: -15.1%,–
CCOc1ccccc1NC(=O)C1CCN(C(=O)c2cccs2)CC1,–,"inconclusive: 25.1 µM [inhibitor, single point]"
COc1ccc(C(=O)COc2cccc(NC(=O)c3ccco3)c2)cc1,–,"inconclusive: 31.6 µM [inhibitor, single point]"
c1ccc(CNc2ncnc3ccccc23)cc1,–,"inconclusive: 1.26 µM [inhibitor, full curve] and inconclusive: 7.08 µM [inhibitor, partial curve]"
CC(=O)Nc1nc(-c2ccc(Br)s2)cs1,–,"inconclusive: 35.5 µM [inhibitor, partial curve]"
N=c1n(Cc2ccccc2)c2ccccc2n1CC(O)COc1ccccc1 (stereo not given),–,active: 14.1 µM
COc1ccccc1C(=O)NCc1ccco1,inactive: 12.5%,–
CC(O)[C@@H](C(=O)N1CCNCC1)n1cc(CCCCN)nn1 (stereo not given in full),–,"inconclusive: 3.16 µM [inhibitor, single point]"
COc1ccc(NC(=O)CSc2nc(C3CC3)nc3ccccc23)c(OC)c1,–,"inconclusive: 31.6 µM [inhibitor, single point]"
CCCn1c(SCC(=O)N2c3ccccc3Sc3ccccc32)nc2ccccc21,–,"inconclusive: 7.94 µM [inhibitor, partial curve]"
O=C(Nc1ccc(Cl)c(S(=O)(=O)N2CCOCC2)c1)c1cc2ccccc2oc1=O,inactive: 16.1%,–
O=C(c1ncn(Cc2ccccc2)c1C(=O)N1CCN(c2ccccc2)CC1)N1CCN(c2ccccc2)CC1,inactive: -19.2%,–
CSc1nc(Oc2ccc(F)cc2)c2ccccc2n1,–,"inconclusive: 31.6 µM [inhibitor, single point]"
C=CCn1cc(/C=C2\SC(N3CCOCC3)=NC2=O)c2ccccc21,–,"inconclusive: 3.98 µM [inhibitor, partial curve]"

SMILES,"activity change, negative = inhibition",Potency
CC(=O)N1c2ccc(S(=O)(=O)N3CCC(C(=O)N4CCCC(C)C4)CC3)cc2CC1C (stereo not given),–,"inconclusive: 12.6 µM [inhibitor, partial curve]"
CCN(CC)CCn1c(=N)n(CC(O)COc2cccc(C)c2)c2ccccc21 (stereo not given),–,active: 6.31 µM
COC(=O)C1=C(c2ccc(OC)c(OC)c2)C[C@@H]2CC[C@H]1N2C(=O)NC1Cc2ccccc2C1,inactive: -22.9%,–
COc1cc(NC(=O)c2cc(-c3cccc(O)c3)on2)cc(OC)c1OC,–,active: 11.2 µM
COc1ccc(-c2oc3ccccc3c2C#Cc2cncn2C)cc1,–,active: 2.82 µM
Cc1ccc(-c2noc(CCCC(=O)NCC3CCCO3)n2)cc1 (stereo not given),–,"inconclusive: 31.6 µM [inhibitor, single point]"
c1ccc2nc3c(ccc4ccccc43)cc2c1,–,"inconclusive: 8.91 µM [inhibitor, partial curve]"
COc1cccc(C(=O)Nc2ccc(C3CC3(Cl)Cl)cc2)c1 (stereo not given),–,"inconclusive: 22.4 µM [inhibitor, single point]"
O=C(Cn1cnc2cc([N+](=O)[O-])ccc2c1=O)Nc1cccc(S(=O)(=O)N2CCCCC2)c1,–,active: 5.62 µM
Cc1ccc2cc3cc(C(=O)NCCC(C)C)oc3nc2c1,–,"inconclusive: 31.6 µM [inhibitor, single point]"
Cc1nc(SCC(=O)NC2(C#N)CCCC2)n(CC(C)C)c1C,inconclusive: -67.9% [inhibitor],–
O=C(O)CS(=O)CC(=O)NCc1cccc(C(F)(F)F)c1 (stereo not given),inactive: 10.7%,–
O=C(NCc1ccccc1)c1ccc(N2CCC3(CC2)CC(c2ccc(Cl)cc2)=NO3)c([N+](=O)[O-])c1,–,active: 4.47 µM
COC(=O)c1ccc(Cn2nnc3c(=O)[nH]c(C4CCN(S(=O)(=O)c5cc(C)ccc5C)CC4)nc32)cc1,inactive: 7.98%,–
Cc1nn(-c2ccccn2)c2c1C(=O)CC(C)(C)C2N=[N+]=[N-] (stereo not given),–,"inconclusive: 5.62 µM [inhibitor, single point]"
O=C(Nc1ccc(N2CCOCC2)nc1)c1ccc(Cl)cc1,–,"inconclusive: 3.98 µM [inhibitor, single point]"
O=C(Nc1ccc(Br)cc1)c1ccc2ncsc2c1,–,"inconclusive: 8.91 µM [inhibitor, partial curve]"
CCCCc1ccc(NC(=O)CSc2nc(=O)n(CCCN3CCOCC3)c3c2CCC3)cc1,–,"inconclusive: 15.8 µM [inhibitor, partial curve, poor fit]"
Cc1ccc2occ(/C=N/NC(=O)c3ccc(O)cc3)c(=O)c2c1,inactive: -24.2%,–
COc1ccc(CCNCc2ccccc2)cc1,inactive: 4.42%,–
Cc1cc(C)n(CCC(=O)N/N=C/c2ccc(O)cc2O)n1,–,"inconclusive: 11.2 µM [inhibitor, single point]"
COc1ccc(NC(=O)C2CCC(C(C)(C)C)CC2)cc1S(=O)(=O)N1CCOCC1 (stereo not given),–,"inconclusive: 28.2 µM [inhibitor, single point]"

# Reference: PubChem BioAssay AID651820 (National Center for Advancing Translational Sciences (NCATS), 2012)
